Lines with a small IC50 respond at low doses; a limit (>, <) means that the fit lies beyond the doses tested. AUC, from the same fit, is the share of area under the viability curve across the 256-fold dose range; values near 1 show little effect. For some of these results: The top dose, if marked as inferred, was derived from the fitted curves, not read from the paper. For some of these results: Drugs with an entry number were screened twice under separate entries, and the two screens often disagree.
Tests used:
Test in all cases: Viability of human cancer cell lines after 72 h of drug (GDSC screen)
[1] = compound: NCC(=O)Nc1ccc(-n2nc(C(F)(F)F)cc2-c2ccc3c(ccc4ccccc43)c2)cc1 [OSU-03012]; details: top dose 16 µM; top dose inferred
Method: (§1)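 Human cancer cell lines in 384-well plates, medium with 10% serum, drug for 72 h over a 256-fold dose range (nine 2-fold or five 4-fold steps up to the top dose). Adherent lines were fixed and stained with the nucleic acid dye Syto60, suspension lines read with resazurin; signal relative to control wells, capped at 0 and 100%. One two-parameter sigmoid per drug and line, fitted in a mixed model over all curves with the slope shared within a line.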

[2] = compound: O=c1[nH]cc(F)c(=O)[nH]1 [5-Fluorouracil]; details: top dose 32 µM; top dose inferred
Method: as §1

[3] = compound: OC[C@H](Cc1ccccc1)Nc1nc(Oc2ccc3c(c2)CCC3)nc2c1ncn2Cc1ccc(-c2ccccc2)cc1 [QS11]; details: top dose 10.24 µM
Method: as §1

[4] = compound: COc1cc(F)c(F)c(Nc2ccc(I)cc2F)c1NS(=O)(=O)C1(C[C@H](O)CO)CC1 [RDEA119]; details: top dose 5 µM, top dose inferred
Method: as §1

[5] = compound: C#Cc1cccc(Nc2ncnc3cc(OC)c(OCCCCCCC(=O)NO)cc23)c1 [CUDC-101]; details: top dose 5.12 µM; top dose inferred
Method: as §1

[6] = compound: CC(C)(C)c1cc(NC(=O)Nc2ccc(-c3cn4c(n3)sc3cc(OCCN5CCOCC5)ccc34)cc2)no1 [AC220]; details: top dose 1.024 µM; top dose inferred
Method: as §1

[7] = compound: Fc1cc(-c2ccnc(Nc3ccc(-n4cnc(N5CCOCC5)n4)cc3)n2)cc(N2CCOCC2)c1 [JNK-9L]; details: top dose 5.12 µM; top dose inferred
Method: as §1

| Cell Line | AUC [1] | IC50 [1] | AUC [2] | IC50 [2] | AUC [3] | IC50 [3] | AUC ([4]; screen: GDSC drug entry 1014) | IC50 ([4]; screen: GDSC drug entry 1014) | AUC ([4]; screen: GDSC drug entry 1526) | IC50 ([4]; screen: GDSC drug entry 1526) | AUC [5] | IC50 [5] | AUC [6] | IC50 [6] | AUC [7] | IC50 [7] |
| --- | --- | --- | --- | --- | --- | --- | --- | --- | --- | --- | --- | --- | --- | --- | --- | --- |
| A388 (skin, adherent) | 0.69 | 3720 nM | 0.883 | > 32000 nM | 0.931 | > 10200 nM | 0.867 | > 5000 nM | 0.875 | > 5000 nM | 0.634 | 797 nM | 0.983 | > 1020 nM | 0.773 | 2290 nM |
| A673 (rhabdomyosarcoma, adherent) | 0.697 | 3340 nM | 0.969 | > 32000 nM | 0.938 | > 10200 nM | 0.95 | > 5000 nM | 0.941 | > 5000 nM | 0.71 | 1160 nM | 0.99 | > 1020 nM | 0.624 | 674 nM |
| ABC-1 (lung adenocarcinoma, adherent) | 0.641 | 2680 nM | 0.834 | 27000 nM | 0.861 | > 10200 nM | – | – | 0.905 | > 5000 nM | 0.469 | 259 nM | 0.983 | > 1020 nM | 0.627 | 774 nM |
| AGS (stomach, adherent) | 0.527 | 1170 nM | 0.935 | > 32000 nM | 0.82 | 5100 nM | 0.371 | 144 nM | – | – | 0.507 | 333 nM | 0.99 | > 1020 nM | 0.495 | 311 nM |
| ALL-PO (lymphoblastic leukaemia, suspension) | 0.692 | 3590 nM | 0.381 | 922 nM | 0.918 | > 10200 nM | 0.773 | 2060 nM | 0.978 | > 5000 nM | 0.117 | < 20 nM | 0.363 | 26.1 nM | 0.626 | 727 nM |
| ALL-SIL (T-cell leukaemia, suspension) | 0.666 | 2680 nM | 0.922 | > 32000 nM | 0.98 | > 10200 nM | 0.962 | > 5000 nM | 0.975 | > 5000 nM | 0.166 | 37.8 nM | 0.928 | > 1020 nM | 0.652 | 790 nM |
| AM-38 (glioma, semi-adherent) | 0.726 | 4460 nM | 0.624 | 4430 nM | 0.938 | > 10200 nM | 0.926 | > 5000 nM | 0.986 | > 5000 nM | 0.618 | 679 nM | 0.974 | > 1020 nM | 0.701 | 1190 nM |
| AMO-1 (haematopoietic neoplasm, suspension) | 0.71 | 3530 nM | 0.655 | 5030 nM | 0.928 | > 10200 nM | 0.856 | 3170 nM | 0.903 | 4980 nM | 0.372 | 150 nM | 0.953 | > 1020 nM | 0.615 | 630 nM |
| AN3-CA (endometrium, adherent) | 0.639 | 2510 nM | 0.978 | > 32000 nM | 0.907 | > 10200 nM | – | – | 0.903 | > 5000 nM | 0.681 | 1080 nM | 0.984 | > 1020 nM | 0.49 | 299 nM |
| ARH-77 (myeloma, suspension) | 0.796 | 7170 nM | 0.504 | 2050 nM | 0.944 | > 10200 nM | 0.979 | > 5000 nM | 0.961 | > 5000 nM | 0.38 | 152 nM | 0.97 | > 1020 nM | 0.609 | 629 nM |
| NCI-H2196 (small cell lung carcinoma, adherent) | 0.869 | > 16000 nM | 0.914 | > 32000 nM | 0.98 | > 10200 nM | – | – | – | – | 0.418 | 189 nM | 0.916 | > 1020 nM | 0.662 | 927 nM |
| SCC-3 (B-cell lymphoma, suspension) | 0.817 | 5990 nM | 0.377 | 1010 nM | 0.997 | > 10200 nM | – | – | – | – | 0.558 | 441 nM | 0.995 | > 1020 nM | 0.59 | 527 nM |
| SIG-M5 (acute myeloid leukaemia, suspension) | 0.521 | 1130 nM | 0.118 | 203 nM | 0.524 | 733 nM | – | – | – | – | 0.229 | 68 nM | 0.984 | > 1020 nM | 0.34 | 130 nM |
| SNU-475 (liver, adherent) | 0.882 | 13600 nM | 0.869 | 24000 nM | 0.988 | > 10200 nM | – | – | – | – | 0.529 | 380 nM | 0.974 | > 1020 nM | 0.777 | 1810 nM |
| SU-DHL-1 (anaplastic large cell lymphoma, suspension) | 0.696 | 2980 nM | 0.491 | 1900 nM | 0.968 | > 10200 nM | – | – | – | – | 0.62 | 622 nM | 0.992 | > 1020 nM | 0.764 | 1400 nM |
| TALL-1 (T-cell lymphoblastic leukaemia, suspension) | 0.879 | 15100 nM | 0.878 | 29900 nM | 0.988 | > 10200 nM | – | – | – | – | 0.574 | 506 nM | 0.987 | > 1020 nM | 0.828 | 2950 nM |
| UACC-812 (breast, adherent) | 0.981 | > 16000 nM | 0.96 | > 32000 nM | 0.991 | > 10200 nM | – | – | – | – | 0.937 | > 5120 nM | 0.991 | > 1020 nM | 0.736 | 1460 nM |
| VMRC-MELG (melanoma, adherent) | 0.779 | 6860 nM | 0.948 | > 32000 nM | 0.988 | > 10200 nM | – | – | – | – | 0.64 | 798 nM | 0.989 | > 1020 nM | 0.604 | 628 nM |
| VMRC-RCW (kidney, adherent) | 0.722 | 4020 nM | 0.966 | > 32000 nM | 0.887 | 10100 nM | – | – | – | – | 0.939 | > 5120 nM | 0.988 | > 1020 nM | 0.533 | 391 nM |

Reference: the supplement of paper PMC4967469
